# Screen size: about 310,000 compounds; about 2,200 (0.71%) showed an effect of 50% or more. Effects have a minus sign here. This is one part of the list.
# Biological target: human ether-à-go-go-related gene (hERG) potassium channel (human, UniProt Q12809)
# Experiment: primary screen, population patch clamp on CHO cells stably expressing hERG
# Sequence of human ether-à-go-go-related gene (hERG) potassium channel (Q12809 whole entry, looked up): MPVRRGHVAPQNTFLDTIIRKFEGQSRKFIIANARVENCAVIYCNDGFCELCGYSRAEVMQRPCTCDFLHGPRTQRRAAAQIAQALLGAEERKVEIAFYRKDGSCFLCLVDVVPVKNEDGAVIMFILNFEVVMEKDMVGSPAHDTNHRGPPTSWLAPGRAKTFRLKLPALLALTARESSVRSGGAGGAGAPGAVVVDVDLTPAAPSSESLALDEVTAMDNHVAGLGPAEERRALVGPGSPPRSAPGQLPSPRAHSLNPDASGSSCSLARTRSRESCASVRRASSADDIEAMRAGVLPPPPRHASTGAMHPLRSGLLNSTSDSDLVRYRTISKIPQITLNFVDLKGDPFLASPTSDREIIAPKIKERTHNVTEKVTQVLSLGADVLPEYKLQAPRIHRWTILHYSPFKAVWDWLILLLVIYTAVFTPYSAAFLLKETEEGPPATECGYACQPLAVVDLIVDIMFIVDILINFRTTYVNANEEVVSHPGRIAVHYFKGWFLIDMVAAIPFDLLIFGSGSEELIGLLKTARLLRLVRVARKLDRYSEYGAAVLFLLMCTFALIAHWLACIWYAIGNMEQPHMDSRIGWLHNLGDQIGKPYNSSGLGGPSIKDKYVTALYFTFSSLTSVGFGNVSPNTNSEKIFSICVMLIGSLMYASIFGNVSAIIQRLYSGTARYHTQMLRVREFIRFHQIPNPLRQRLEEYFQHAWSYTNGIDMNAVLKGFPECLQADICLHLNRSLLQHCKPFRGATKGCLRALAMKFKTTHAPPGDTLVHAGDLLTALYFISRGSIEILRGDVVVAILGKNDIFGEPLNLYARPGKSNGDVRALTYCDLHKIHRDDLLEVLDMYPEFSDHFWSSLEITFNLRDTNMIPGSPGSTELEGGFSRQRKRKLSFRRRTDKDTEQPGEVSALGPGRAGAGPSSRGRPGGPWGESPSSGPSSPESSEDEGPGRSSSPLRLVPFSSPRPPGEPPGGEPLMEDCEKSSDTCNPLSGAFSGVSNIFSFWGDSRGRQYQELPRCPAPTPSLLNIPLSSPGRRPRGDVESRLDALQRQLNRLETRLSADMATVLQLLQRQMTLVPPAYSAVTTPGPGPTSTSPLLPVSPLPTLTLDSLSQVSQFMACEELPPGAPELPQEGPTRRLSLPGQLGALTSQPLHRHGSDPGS
row,SMILES,"hERG current change (%, negative = inhibition) at 1uM [%]"
1,CCCN1C(=O)/C(=C\c2ccncc2)SC1=Nc1ccccc1,8.22
2,CCCCCN(C(=O)CCC(=O)OCC(=O)c1ccc(CCC)cc1)c1c(N)n(CCCC)c(=O)[nH]c1=O,4.95
3,COc1ccc(/C=N/NC(=O)c2cccnc2)cc1CN1CCN(c2ccc(F)cc2)CC1,-0.578
4,O=C(CCCSc1nc2ccccc2[nH]1)Nc1ccccc1,12.6
5,COc1ccc2nc(C)cc(SCC(=O)NNC(=O)COc3ccccc3)c2c1,14.9
6,CC(C)CCNC(=O)c1ccc2nc[nH]c2c1,4.71
7,CCOc1ccc(C(=O)NC(=S)Nc2ccc(NC(=O)c3ccco3)cc2)cc1[N+](=O)[O-],12.7
8,COc1ccc(C2CC(C(F)(F)F)n3nc(C(=O)O)c(Cl)c3N2)cc1OC (stereo not drawn),9.38
9,Cc1ccc(S(=O)(=O)CCC(=O)Nc2nc(C(C)(C)C)cs2)cc1,10.7
10,Cc1cccc(-n2cnc3c(sc4nc(N5CCOCC5)c5c(c43)CCCC5)c2=O)c1,15.6
11,O=C(NCCCCCCNC(=O)N1CCCCCC1)N1CCCCCC1,-0.489
12,COc1nc(C)nc2c1sc(=S)n2C,10.1
13,CCc1cccc(NC(=O)c2cc(OC)c(OC)c(OC)c2)c1,-3.13
14,COC(=O)c1nn(C23CC4CC(CC(C4)C2)C3)c2c1C(=O)N(c1ccc(Br)cc1)C2=O,15.7
15,CCCCN(C)CC(O)Cn1cc(/C=C/C(=O)c2ccc(OCC)cc2)c2ccccc21 (stereo not drawn),9.02
16,O=C(COC(=O)CCC(=O)c1cccs1)Nc1ccc(S(=O)(=O)N2CCOCC2)cc1,6.1
17,Cc1csc(NC(=O)[C@@H]2CCCN2C(=O)c2cccs2)n1,-2.08
18,Cc1ccccc1-c1ccccc1N,8
19,Cc1cc(C)nc(SCc2nnc(SCC(=O)N3CCCc4ccccc43)o2)n1,3.38
20,O=S(Cc1ccc(Cl)cc1)c1ncc(CO)n1Cc1ccccc1 (stereo not drawn),-4.26
21,CCNc1nc(NCC)nc(N/N=C(\C)c2ccc(OC)cc2)n1,9.95
22,O=C(CCC1N=C2c3ccccc3N=C(SCC(=O)NCc3ccco3)N2C1=O)NCc1ccco1 (stereo not drawn),13.2
23,Nc1nc(NCCCN2CCOCC2)nc(Nc2cccc(F)c2)c1[N+](=O)[O-],0.167
24,CC1=NN(C(=O)CSCc2ccccc2)C(O)(c2ccccc2)C1 (stereo not drawn),2.61

# — PMC4336329 (PLoS ONE, 2015)
